# Data reported in PubChem BioAssay AID686970 (National Center for Advancing Translational Sciences (NCATS), 2013).
# Hit rate of the full screen: of about 360,000 compounds, about 6,000 (1.7%) were called active. This list was built around the results that the source calls inconclusive (neither active nor inactive); the mix of calls is not that of the screen. Calls come from the whole dose curve; as a rule, active = well fitted cell-killing curve with a large enough effect; inconclusive = small, poorly fitted or top-dose-only effect, or effect the other way; inactive = flat fitted curve, though single readings scatter. Potencies of inconclusive entries are left out as doubtful fits.
# Experiment: qHTS for induction of synthetic lethality in tumor cells producing 2HG: qHTS for the HT-1080-NT fibrosarcoma cell line;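 note: NT is the 2HG producing partner of a matched IDH1 knockdown line; nearly all actives have a fitted effect of over 55% in size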;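 for activity, negative = less viability: 0% = DMSO-treated cells and -100% = media-only wells without cells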
# Conditions: HT-1080-NT fibrosarcoma viability, CellTiter-Glo ATP luminescence, 48 h; activity, negative = less viability: at 46.1 µM (top of the series) unless noted
# How it was run: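 Compounds were tested in concentration-response format on HT-1080-NT cells for 48 hours at 37 degrees C. Cell viability came from CellTiter-Glo luminescence; curves were classified by r2, response magnitude and activity.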
# Potency is the fitted concentration of half-maximal effect; tags give direction and shape of the fitted curve.
SMILES,Potency,"activity, negative = less viability"
CCC(C)c1ccc(NC(=S)NC2CCN(Cc3ccccc3)CC2)cc1 (stereo not given),active: 18.4 µM,
CCN(CC)C(=O)c1cccc(-c2csc(C(C)(O)c3cccc(F)c3)n2)c1 (stereo not given),"inconclusive [cytotoxic, partial curve]",
Cc1cc(C(=O)CSc2nnc(Nc3ccccc3)s2)c(C)n1CC1CCCO1 (stereo not given),inactive,
Cc1cc(/C=N/n2cnnc2)c(C)n1-c1ccc(OCc2ccc(F)cc2)cc1,"inconclusive [cytotoxic, single point]",
O=C1C=CC(n2cc(F)c(=O)[nH]c2=O)O1 (stereo not given),"inconclusive [cytotoxic, single point]",
CCOc1ccccc1OCC(=O)OCC(=O)c1c(N)n(CC(C)C)c(=O)n(C)c1=O,inactive,
O=S(=O)(c1ccc2nc(-c3ccccc3)[nH]c2c1)N1CCN(c2cccc(Cl)c2)CC1,"inconclusive [cytotoxic, partial curve]",
COc1ccc(Nc2nc(NCc3cccs3)nc3ccsc23)cc1OC,"inconclusive [cytotoxic, single point]",
CCN(C[C@H]1N[C@@](Cc2ccccc2)(C(=O)OC)[C@H]2C(=O)N(Cc3ccccc3)C(=O)[C@@H]12)C(=O)Nc1ccc(Cl)cc1,"inconclusive [cytotoxic, single point]",
COc1ccc2c(c1)-c1c(sn(-c3ccccc3)c1=S)C(C)(C)N2,"inconclusive [cytotoxic, single point]",
Cc1cc2c(cc1C)N(C(=O)CCl)CCN2C(=O)CCl,"inconclusive [cytotoxic, single point]",
Cc1ccc(-c2nnc(N3CCCCCC3)c3ccccc23)cc1,inactive,
N#Cc1ccc(OCc2nnc(SCC(=O)c3ccccc3)n2-c2ccccc2)cc1,inactive,
CCc1nc2ccc(C(=O)Nc3cc(-c4ccccc4)ccc3OC)cn2c1N(C)Cc1ccc(Cl)cc1,"inconclusive [cytotoxic, single point]",
C=C1C(C(=O)Nc2ccc(OCC)cc2)C1C(=O)Nc1ccc(OCC)cc1 (stereo not given),"inconclusive [cytotoxic, single point]",
CCOC(=O)COc1ccc(S(=O)(=O)Nc2cccc(SC)c2)cc1,active: 10 µM,
O=C(OCC(=O)N(Cc1ccccc1)Cc1ccccc1)c1ccccc1NCCO,"inconclusive [cytotoxic, single point]",
COc1ccc(C2=CC(c3c(C)nn(-c4ccccc4)c3Cl)n3nnnc3N2)cc1OC (stereo not given),"inconclusive [cytotoxic, single point]",
COc1ccc(NC(=O)c2c(C)noc2-c2snnc2C)cc1,"inconclusive [cytotoxic, partial curve]",
CCc1ccc(CNC(=O)c2ccc(NC(=O)C3=CSCCO3)cc2)cc1,,inconclusive: -29.8% [cytotoxic]
CC(C)COc1cc(=O)[nH]c(SCC(C)C)n1,"inconclusive [cytotoxic, partial curve]",
CCOC(=O)c1ccc(NC(=O)Nc2ccc(F)cc2)cc1,"inconclusive [cytotoxic, single point]",
Cc1ccc(-n2[nH]c(C)c(C=NCc3ccncc3)c2=O)cc1,"inconclusive [cytotoxic, single point]",
Cc1cccc(C)c1NC(=O)CSc1nnc(C)n1CC1CCCO1 (stereo not given),inactive,

SMILES,Potency,"activity, negative = less viability"
CCOc1ccc(C(=O)NCC(=O)NCC(c2cccs2)N2CCOCC2)cc1 (stereo not given),inactive,
O=C(NC1CC1)C1CCN(c2ccc(S(=O)(=O)N3CCOCC3)cc2)CC1,"inconclusive [cytotoxic, partial curve, poor fit]",
COc1ccc([N+](=O)[O-])cc1NC(=O)C(C)OC(=O)Cc1ccc(OC)c(OC)c1 (stereo not given),inactive,
COc1cc(OC)c(S(=O)(=O)NC(C)C)cc1C(=O)O,inactive,
Cc1ccc(CN2C(=O)c3ccccc3Sc3ccc(C(=O)NCCN4CCOCC4)cc32)cc1,active: 11.6 µM,
CCNC(=O)C1CCCN(C(=O)c2cc(F)ccc2C)CC1 (stereo not given),"inconclusive [rising, partial curve]",
COCCNC(=O)c1cccc(OC2CCN(Cc3ccc(C(C)C)cc3)CC2)c1,"inconclusive [cytotoxic, single point]",
Oc1ccc(Cl)cc1-c1cc(-c2ccco2)[nH]n1,"inconclusive [cytotoxic, single point]",
CCN1Cc2c(/C=C/c3ccccc3)nc3ccc(OC)cc3c2N(c2cccc(Cl)c2)C1,"inconclusive [cytotoxic, partial curve]",
CCN(c1ccccc1)c1nc(C#N)nc(N(CC)c2ccccc2)n1,"inconclusive [cytotoxic, single point]",
Cc1cccc(C)c1NC(=O)CN1CCN(CC(=O)NCC2(N3CCCCC3)CCCCC2)CC1,inactive,
Cc1ccc2c(c1)c(C)c(C)n2CC(O)Cn1nc(C)c(Br)c1C (stereo not given),active: 16.4 µM,
Cc1cccc(N2CCN(CCCNC(=O)c3ccc(NC(=O)C4=CSCCO4)cc3)CC2C)c1 (stereo not given),"inconclusive [cytotoxic, single point]",
Cc1cccc(NC(=O)Cn2c(O)c(N=NC(=O)c3ccccc3O)c3ccccc32)c1,"inconclusive [cytotoxic, partial curve]",
Cc1cccc(C2c3[nH]c4ccccc4c3CCN2C(=O)Cc2nc(-c3ccccc3)n[nH]2)n1 (stereo not given),"inconclusive [cytotoxic, single point]",
CCOc1ccc(CCNC(=O)Cn2ncn3nc(-c4ccc(OC)cc4)cc3c2=O)cc1,"inconclusive [rising, single point]",
Nc1ccc2nc(-c3ccccc3)sc2c1,"inconclusive [cytotoxic, single point]",
Fc1ccc(-c2[nH]ncc2-c2nnnn2-c2ccccc2)c(F)c1,inactive,
O=C(CN(C(=O)CCC(=O)Nc1nccs1)c1ccc(F)c(Cl)c1)NCC1CCCO1 (stereo not given),"inconclusive [rising, partial curve, poor fit]",
Cc1nc2c(ccc3nc(NC(=O)C4CC4)sc32)s1,"inconclusive [cytotoxic, single point]",
CCOC(=O)c1c(NC(C)=O)sc2c1CCC(C=NCCCN(CC)CC)=C2Sc1ccccc1,"inconclusive [cytotoxic, single point]",
COc1ccc(-c2cc(COc3ccccc3)on2)cc1,inactive,
Cn1c(SCc2nnc(-c3ccccc3Br)o2)nc2sc3c(c2c1=O)CCC3,"inconclusive [cytotoxic, single point]",
COc1ccc(-n2c(C)nn(C)c2=O)c(OC)c1,inactive,

SMILES,Potency,"activity, negative = less viability"
CCOc1ccccc1CNC(=O)C1CCCN(c2nn3c(=O)cc(C)nc3s2)C1 (stereo not given),inactive,
CN(C)CCNC(=O)c1ccc(-c2cnn(C)c2)c2ccoc12,"inconclusive [rising, single point]",
CCCn1c(C)cc(C(=O)COc2ccc(S(=O)(=O)N(CC)CC)cc2[N+](=O)[O-])c1C,inactive,
O=C(CCN1CCN(c2ccccc2F)CC1)c1ccc(Br)cc1,"inconclusive [cytotoxic, single point]",
O=C(N/C(=C/c1cccc(Br)c1)c1nc(=S)[nH][nH]1)c1ccccc1,"inconclusive [cytotoxic, single point]",
CCC(C)(C)NC(=O)C(c1cccn1C)N(Cc1ccc(OC)cc1)C(=O)Cn1nnc2ccccc21 (stereo not given),"inconclusive [cytotoxic, single point]",
Nn1c(Nc2ccccc2)nc2sc3c(c2c1=O)CCC3,"inconclusive [cytotoxic, single point]",
O=c1ccc2nc3ccccc3sc-2c1,"inconclusive [cytotoxic, single point]",
Cc1cccc(CSc2nnc(CCCCCNC(=O)OC(C)(C)C)o2)c1,inactive,
C#CC1(NC(=O)NC(=O)c2c(F)cccc2F)CCCCC1,"inconclusive [rising, partial curve, poor fit]",
COc1ccc(Cl)cc1NC(=O)CNc1ccccc1F,"inconclusive [cytotoxic, single point]",
CCCN1C(=O)C(=O)c2cc(C)ccc21,"inconclusive [cytotoxic, single point]",
CCC1=NN(C(=O)C(=O)NCCc2ccccc2)C(O)(C(F)(F)F)C1 (stereo not given),"inconclusive [cytotoxic, full curve]",
N#Cc1cccc2c1-c1ccccc1/C2=N/NC(N)=S,active: 6.51 µM,
CCN(CC)CCNc1nc2c(c(=O)n(C)c(=O)n2C)n1C/C=C(/C)Cl,inactive,
CCOC(=O)c1c(NC(=O)COC(=O)CNC(=O)c2ccco2)sc(C)c1C,inactive,
O=[N+]([O-])c1cc(-c2ncccn2)c([N+](=O)[O-])s1,active: 16.4 µM,
COc1ccc(CCNC(=O)c2ccc(CSc3ccc(Cl)cc3)o2)cc1OC,"inconclusive [cytotoxic, single point]",
COc1ccc(/C=N\n2nnc3ccccc32)cc1,"inconclusive [cytotoxic, single point]",
COc1ccc(C(=O)Nc2ccc(N3CCC(C)CC3)cc2)cc1Br,"inconclusive [rising, partial curve, poor fit]",
CCOC(=O)c1c(C)[nH]c(C)c1S(=O)(=O)NCc1ccccc1C,inactive,
CC(=O)N(Cc1ccco1)C1(C(=O)NC2CCCCC2)CCCCC1,inactive,
